# Experimental data from paper PMC12136788.
# The other results are listed elsewhere or left out.
# B1: chr2:121605696:121605828:-|CDS|ENSG00000074054|unk|FALSE|unique (ssRNA)
# RNA: GGGAGUUCUACAGUCCGACGAUCGAUAGACUAUUUCUCAGACAAACAGAAGUCUGCUGACCUUGAGCAUGACCAGACCAUGUUAGAUAAACUUGUGGAUGGACUUGCUACCUCUUGGGUGAACUCUAGCAAUUACAAGGUAAGCAACAGAGGAUUGAGCAUCA
# B2: chr17:18327447:18327548:+|3pUTR|ENSG00000176994|msi1|FALSE|unique (ssRNA)
# RNA: GGGAGUUCUACAGUCCGACGAUCGUCAACUCACAGAUUCUGCAGCAGCUGCUCCACCCACAAUAAAGCAAACGCCGACAGGCUAGACCCCAGAUUGCAGGGGCUGCCACCUACAAGGUGGGACCACAGGCUGCCUCACCGGGACAACAGAGGAUUGAGCAUCA
# B3: chr5:10264816:10264917:+|3pUTR|ENSG00000150753|msi1_unk|total|mutant (ssRNA)
# RNA: GGGAGUUCUACAGUCCGACGAUCAAUGGAUGUCUCGUGAUGCAUCUACAGUUAUUUAUUGUUACAUCCUUUUCCAGACACUGCCGAUGCUAUAAUAAAAACCGCUGUUUGGUAACCACCGUUUCACUUGUUCAAAGCUGUGUACAACAGAGGAUUGAGCAUCA
# B4: ENSG00000124766:be:win_3801|3pUTR|ENSG00000124766|bound_else_gene|NA|bound_elsewhere_windowed (ssRNA)
# RNA: GGGAGUUCUACAGUCCGACGAUCUGUUUAAUAUAACAUGACAGGCACUAGGACGUCUGCCUUUUUAAGGCAGUUCCGUUAAGGGUUUUUGUUUUUAAACUUUUUUUUGCCAUCCAUCCUGUGCAAUAUGCCGUGUAGAAUAUUCAACAGAGGAUUGAGCAUCA
# B5: chr15:34980028:34980129:-|3pUTR|ENSG00000198146|msi1|total|mutant (ssRNA)
# RNA: GGGAGUUCUACAGUCCGACGAUCGGUUCUGUUAUUUAAGCCUGUUCUAAGUUUGAUCAAAUGGCAAUGACCCGGUCCCGUUUCCGUUUUUAUUUUUGCAGGAGUCUAUUGCUAAAGAAUUUUAUUUUGAUGCUUGUUAAAUUUCAACAGAGGAUUGAGCAUCA
# B6: ENSG00000070961:be:win_1001|CDS|ENSG00000070961|bound_else_gene|NA|bound_elsewhere_windowed (ssRNA)
# RNA: GGGAGUUCUACAGUCCGACGAUCAGCCAUUGAAGAGUGAAGAAGGUGGAGAUGGUGAUGAAAAAGAUAAAAAGAAAGCAAAUUUGCCAAAAAAGGAAAAAUCUGUUUUACAAGGGAAACUUACAAAACUGGCUGUUCAGAUUGCAACAGAGGAUUGAGCAUCA
# B7: ENSG00000137504:stop:overlap|stop_codon|ENSG00000137504|stop_codon|NA|stop_codon (ssRNA)
# RNA: GGGAGUUCUACAGUCCGACGAUCAGGUGUCGGUGGAGUUCUGCUCGGCGUGCGCCCGGAAGGCGUCGUCUUCUCUUAAAAUGUAGGGUCAAGUAAUCUGCUCUUUAUCCGCGUUUACCCCUUUCAACUCCCUUACACCAUGUCCAACAGAGGAUUGAGCAUCA
# B8: chr20:56404979:56405080:+|3pUTR|ENSG00000101138|unk|total|mutant (ssRNA)
# RNA: GGGAGUUCUACAGUCCGACGAUCCCGCGCCCAGCCUUCCUGAAGCUUUUCCGAACAUGACAGUACUUCUCUGGAUUCAGCACCCGCAGAGUCAGAGAACUCUGAACUCCCCUUGUACAAACAUAAACUUUGCUUUAUAUUUAUCAACAGAGGAUUGAGCAUCA
# B9: chr3:157259741:157261133:-|three_prime_utr|ENSG00000197415|control|control|control (ssRNA)
# RNA: GGGAGUUCUACAGUCCGACGAUCACUAAAUACCAAUGGAAUUGUUGUCCUUUAAGAAGAAGGGCCUAAAAUGGCAGGAUUCUUAGUAAAUGUCAUACUCUAACAGCUUUAGUAUUGACUUCAGAAUAUAUCUGAUGCCCACAACAACAGAGGAUUGAGCAUCA
# B10: chr10:62092816:62092917:+|CDS|ENSG00000150347|msi1|FALSE|unique (ssRNA)
# RNA: GGGAGUUCUACAGUCCGACGAUCUUUUACAUCACCGACAAAUUCUCAGCAGCUGUACAGACACUUGGCUGCGGCUACACCUGUAGGAAGUUCAUAUGGGGACCUUUUGCAUAACAGCAUUUACCCUUUAGCUGCUAUAAAUCCCAACAGAGGAUUGAGCAUCA
# B11: chr2:42282796:42282970:+|CDS|ENSG00000143924|unk|FALSE|unique (ssRNA)
# RNA: GGGAGUUCUACAGUCCGACGAUCAUAUGGUUAUCGAGGAAAGGACUGUAGAGCUAAUGUUUACCUUCUUCCGACCGGGAAAAUAGUUUAUUUCAUUGCAUCAGUAGUAGUACUAUUUAAUUAUGAGGAGAGAACUCAGCGACACAACAGAGGAUUGAGCAUCA
# B12: chr7:44573567:44573675:-|CDS|ENSG00000136271|unk|total|mutant (ssRNA)
# RNA: GGGAGUUCUACAGUCCGACGAUCCGCACGGGCUCCGGGAAGACGGCCGCUUAUGCUAUUCCGAUGCUGCAGCUGUUGCUCCACCGGAAGGCGGUGGGUAACGAGAGAGCUGAGGGGAGGAAGGAGGCAAGCUCCAAAAGCCUGCAACAGAGGAUUGAGCAUCA
# B13: chr1:204554719:204554820:+|3pUTR|ENSG00000198625|unk|total|mutant (ssRNA)
# RNA: GGGAGUUCUACAGUCCGACGAUCAAGUACUUUCUUUUGACAGAAAUUUUCAUUCUGCUUGCCAUUGCUAUAUUCUCCCUUUACCGGAGCCAUUGGAUUUCUUUCCUUUUGUGGGAAAUGUCCCAUCCGCAUUUUCAGAUCUUUCAACAGAGGAUUGAGCAUCA
# B14: chr2:74214837:74214938:+|3pUTR|ENSG00000065911|msi1_unk|total|mutant (ssRNA)
# RNA: GGGAGUUCUACAGUCCGACGAUCCUGUCCUUUUGAGGCUCCGUCAGUUUAUUGGGAAAAUGUUCCGGAUUAUUCCUUGCUAUCCGUACUCAUUUUAUGUAUGUUACCCUUCAGUAAGUUCUCCCCAUUUCCGUUUUCCCGGACCAACAGAGGAUUGAGCAUCA
# B15: chrX:149582234:149583179:-|CDS|ENSG00000267978|control|control|control (ssRNA)
# RNA: GGGAGUUCUACAGUCCGACGAUCUCCUACAUCCUUGUCACUGCUCUUGGCCUCUCGUGCGAUAGCAUGCUGGGUGAUGGUCAUAGCAUGCCCAAGGCCGCCCUCCUGAUCAUUGUCCUGGGUGUGAUCCUAACCAAAGACAACCAACAGAGGAUUGAGCAUCA
# B16: chr3:25618756:25618858:-|CDS|ENSG00000077097|unk|total|mutant (ssRNA)
# RNA: GGGAGUUCUACAGUCCGACGAUCUAUAUAAGUUAAAAUACCAGUACAGAUCUAUAUGAUCUGCAAAGUAUAUGUGUUUUGCUCCGGUACUUUUUGAUCAUAUGGGAUGUCUGAAGAAAUAUGAAACUGUGCAAGACAUUCUGACAACAGAGGAUUGAGCAUCA
# B17: chr12:100341478:100341579:+|3pUTR|ENSG00000136021|unk|total|mutant (ssRNA)
# RNA: GGGAGUUCUACAGUCCGACGAUCCUAUUCUCCUAUUGCUAAAUGUGUGAUAUACCGAGAGGAUGUAUAAAAGGAAAUGGAAACCGACUAUGUACUUGUCUGGUUUUUGUUUGUUUUUAUUUUGGAAUGCUUAUAAGCCUCCUUCAACAGAGGAUUGAGCAUCA
# B18: ENSG00000070961:be:win_2351|CDS|ENSG00000070961|bound_else_gene|NA|bound_elsewhere_windowed (ssRNA)
# RNA: GGGAGUUCUACAGUCCGACGAUCCUGUCUCAGACCAACGCCAGGUUGUAGCUGUAACUGGUGAUGGUACAAAUGAUGGCCCAGCACUAAAGAAAGCAGAUGUUGGAUUUGCAAUGGGUAUUGCUGGAACUGAUGUAGCUAAAGCAACAGAGGAUUGAGCAUCA
# B19: ENSG00000136451:be:win_3501|3pUTR|ENSG00000136451|bound_else_gene|NA|bound_elsewhere_windowed (ssRNA)
# RNA: GGGAGUUCUACAGUCCGACGAUCUCCACAGUACAAAAAUGGUUUGUUUUUAAUAUGUAGAGCAUUAUGUGUGGACUACUGGAAGGACUCGUGUAGGGAAAGCCCAAGAAUGACCUUGCUGAGGCCUGGAUUGGGAGGCACAGUCAACAGAGGAUUGAGCAUCA
# B20: chr14:92131016:92131127:+|CDS|ENSG00000165934|unk|total|mutant (ssRNA)
# RNA: GGGAGUUCUACAGUCCGACGAUCACCCUUUCUGGGGUCCAAGAAGAAUCUGCCCUUUGCUAUCUUCUCCAAGUUGAUGAGUUCCGAUUUUUAUUGGACUGUGGCUGGGAUGAGCACUUUUCUAUGGAUAUUAUUGAUUCCCUGCAACAGAGGAUUGAGCAUCA
# B21: chr5:93620789:93620892:-|3pUTR|ENSG00000113391|unk|total|mutant (ssRNA)
# RNA: GGGAGUUCUACAGUCCGACGAUCCAGCCCCUCAUCCGAUUGUUUUCUUCCCAGAGCCCAGGGUCGUGAUAUAUACAUCUAAACCGCGUUUUGCAUUAUUUCCCGAUGAGUGCAACUGUCAAAGCAAUAUGGGUUCACUGGUCGCAACAGAGGAUUGAGCAUCA
# B22: chr1:165910223:165910324:+|3pUTR|ENSG00000143179|unk|total|mutant (ssRNA)
# RNA: GGGAGUUCUACAGUCCGACGAUCCCAGCAUUUGGCCAACUCUGUAUCUGAACUUGAGCUUUCUAUGGAACAAACAAUGGUCUCCGUUUUUUAAGAGCCUCUGGGUCUCUGAUUCCAUGGAGAGUCAGGAGCCGAAUCCGUGGACAACAGAGGAUUGAGCAUCA
# Target: MSI1 full-length (mouse, UniProt Q61474 1-362)
# Chain of UniProt Q61474 (Q61474 whole entry): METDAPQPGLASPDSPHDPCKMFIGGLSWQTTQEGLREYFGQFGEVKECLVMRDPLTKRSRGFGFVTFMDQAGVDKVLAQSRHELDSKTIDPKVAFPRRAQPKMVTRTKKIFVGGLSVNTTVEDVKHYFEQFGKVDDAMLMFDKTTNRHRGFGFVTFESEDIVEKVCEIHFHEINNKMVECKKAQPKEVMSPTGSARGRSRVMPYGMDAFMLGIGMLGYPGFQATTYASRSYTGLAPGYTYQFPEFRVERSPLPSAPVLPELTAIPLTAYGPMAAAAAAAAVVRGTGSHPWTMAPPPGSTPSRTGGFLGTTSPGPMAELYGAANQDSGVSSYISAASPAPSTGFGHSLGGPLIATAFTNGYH
# Assay: nsRBNS (natural sequence RNA bind-n-seq); RBNS binding buffer (assumed for nsRBNS): 25 mM Tris pH 7.5, 150 mM KCl, 3 mM MgCl2, 0.01% Triton X-100, 500 ug/ml BSA, 20 U/ml SUPERase-In, 4 C; UNK is unkempt and MSI1 is Musashi-1; names of the RNAs are library labels; protein concentration not given here; high values mean tight binding
row,Binder,binding signal [enrichment R]
1,B1,0.757
2,B2,0.586
3,B3,0.42
4,B4,0.374
5,B5,0.774
6,B6,0.484
7,B7,0.531
8,B8,0.613
9,B9,0.698
10,B10,0.508
11,B11,8.04
12,B12,0.413
13,B13,0.288
14,B14,0.32
15,B15,0.444
16,B16,0.423
17,B17,0.239
18,B18,0.684
19,B19,0.489
20,B20,0.295
21,B21,0.446
22,B22,0.321
